Measurements from the supplement of paper PMC11417369.
± gives the standard deviation of the averaged measurements. The list shows a part of the results.

System: PfAP2-G AP2 domain (GST-tagged)
Assay: gcPBM binding intensity (ln(normalized median fluorescence intensity)); higher = stronger DNA binding
Summary of the method: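 Each value is the highest Masliner-normalised natural-log median intensity across replicate spots of either orientation of a probe. The probes were primer-extended double-stranded 36-bp intergenic genomic sequences on an Agilent 4 × 180k array, alongside negative controls, exposed for 1 h to GST-tagged P. falciparum DNA-binding domains expressed in E. coli. Bound protein was picked up with Alexa488 anti-GST antibody and scanned at 488 nm.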

Sequence | gcPBM binding intensity (ln)
ATTTGTGAATATATTCGGTGAACTTTGTTAACACAT [XGTACX_negctrl_site445] | 10.1 ± 0.18
ATCTCTATGATATATACACACAAATATACAAAAAAA [CACACA_site6605] | 10.01 ± 0.085
AATGTATATTATTGCACACATATATAAAATTATGCT [CACACA_site1096] | 9.99 ± 0.057
AAAAAAATATAGATCTGTACATATATAAATATATGT [XGTACX_site511] | 10.8 ± 0.47
TCTCTAATTTTTAATACACACAAATAAATAAATAAA [CACACA_site216] | 10.1 ± 0.26
ATATATGTTAATAATTGTACAAATCGATAATATATA [XGTACX_site5076] | 10.8 ± 0.34
AGGCATAATTAAAAGTAACAATTATGGAAACGGAGT [GTGCAC_negctrl_site623] | 10.1 ± 0.12
TTTATTTATTATTAAAGTACTAAATTATATTATTAT [XGTACX_site2565] | 10.7 ± 0.57
AAAAAAAAAAAAAACACACACATGCACCTCATATTA [CACACA_site556] | 10.2 ± 0.12
TAATATCCATATAAAACACACATCAAGGTTGTTAAC [CACACA_site175] | 9.955 ± 0.021
ACAACATAGAGGGGCACACACATATATACATAAAAA [CACACA_site6954] | 10.7 ± 0.52
AAAAAAAAAAAAAAATGTACATATAAATAAATATAT [XGTACX_site7248] | 11.3 ± 0.8
ATGTTTTATATTATTAATATATATATATATATATAT [CACACA_negctrl_site331] | 10.2 ± 0.48
GTTATATAAAAATATTGTACATTCTATATAAAGTCA [XGTACX_site4418] | 10.8 ± 0.52
TATGTGCACCCATATACACACACAAATACAATGATA [CACACA_site8295] | 10.9 ± 0.96
AATTCATATACAAAAAGTACAAACGAAAAATAAAAA [XGTACX_site2900] | 11.4 ± 0.94
TTTTAAAAATCTATATGTACACAATACGTCTATAAA [XGTACX_site5787] | 11.4 ± 0.71
TGTTTGAATAACAAAAAAAAAAAAAAAATTAAAAAA [CACACA_negctrl_site1332] | 9.44 ± 0.085
ATTTTAAATGTTATGCGTACATATTAATCCTACTTA [XGTACX_site1344] | 11.5 ± 0.79
AAAAAAAAAAAAAACACACAAACGCTTTTTTTTTTT [CACACA_site686] | 10.22 ± 0.071
TATGAAAATGTTCATACACACATAAAAAAAAAAAAA [CACACA_site3236] | 9.97 ± 0.57
TACACATACACATACACACGCATAGAAACATACGAA [CACACA_site2137] | 10.2 ± 0.32

Sequence | gcPBM binding intensity (ln)
GATATGTACTAATACACACACATATAGATTTATATA [CACACA_site6610] | 11 ± 0.76
TATATTTATTATAACACACACATATATATATTATAT [CACACA_site1061] | 9.905 ± 0.064
TTTTAAATATGCAGATGTACATTATAATGTTTTATT [XGTACX_site2079] | 11 ± 0.54
TACATATTTTTATATACACACAATAATTATTATAAA [CACACA_site1659] | 10 ± 0.13
ATAAATATTGGGTGCACACACATAATATATATATAT [CACACA_site2272] | 10.7 ± 0.67
AGGTTCCCAAAATGCACACCAATGAAATTATTTATT [CACACA_site553] | 10.2 ± 0.2
ATAAATAAAATTAGGTGTACTTTAATTAAAGAAAAT [XGTACX_site3319] | 11.5 ± 1
TATACATATATAATATGTACATATATTTTTTTTTAA [XGTACX_site2938] | 11.1 ± 0.64
CATAAAAATATTTTCTGTACATATTCATATGACGTT [XGTACX_site3406] | 11.2 ± 0.7
ATTTCCTGGCTACTGTGTACTGACCTCCAGACTGCT [XGTACX_site2005] | 11 ± 0.67
TTTTAACTTTTATATTGTACGTTGTTTATTTTATTT [XGTACX_site7504] | 11.2 ± 0.76
ATAATCATTTGGATATTCACAATATTTAAAATTAAA [CACACA_negctrl_site909] | 9.81 ± 0.099
GAAAAAAAAAAAAAAAAAAAAAAATTCATTTTTTTT [XGTACX_negctrl_site54] | 9.37 ± 0.32
TATACAAAATAACTAGCACACATATGTATAAACATA [CACACA_site9236] | 10.2
AAAATAAAAAATATAACACACAATAAATATATATAT [CACACA_site1926] | 9.815 ± 0.035
TAAATTATATTATGCACACTTAAAAATATATTTAAC [CACACA_site3512] | 10.07 ± 0.085
ATATGTATTAAGTGTACACATATAATGTATTTTGTT [CACACA_site4177] | 11.6 ± 0.92
TCATAATGAAAACAAGCACACATACATAAAATAAAA [CACACA_site9069] | 10.1 ± 0.064
TTATTTACCATCTCTACACACAAAAATTGATGTAGA [CACACA_site2811] | 10.1 ± 0.19
CGTATGAAACATATATGTACTTATAAAAATATAACC [XGTACX_site7539] | 11.3 ± 0.86
AAATCACCTTAAGAACGTACAAACAGAAAAAAATTA [XGTACX_site4623] | 11.1 ± 0.69
TTTATTATATTTATATGTACTTATATAATATATGCA [XGTACX_site1906] | 11.3 ± 0.86

Sequence | gcPBM binding intensity (ln)
TTATAAATATAATATTGTACAAAATTTTAACATGTC [XGTACX_site5259] | 10.9 ± 0.59
CTTATGTGTATAAGTAGTACTAAATTAAAATAATAT [XGTACX_site2681] | 11.4 ± 0.88
ATATGTAATAATAAATGTACGAAACATTGAACGATG [XGTACX_site1266] | 10.8 ± 0.42
TTTTTATATATCACGTGTACATATTTATTTTTACTC [XGTACX_site8049] | 11.5 ± 0.81
GAATCATCCAAAATTGCATGCAAGGAAGAAGAAAAA [TGCATGCA_site764] | 9.9 ± 0.25
CATATATACATATATACACACATATATATATATATA [CACACA_site645] | 10.1 ± 0.48
ATATATTTATAATACACATGCAATGATATAATATAT [TGCATGCA_site20] | 9.895 ± 0.078
TTTTTTTTTCTGTGAGTGCATGTAATAAAATAAATT [GTGCAC_site9740] | 10.3 ± 0.35
GTAAGAAAGAAAGGAAGTACGTAAGAAAGTAAGAAC [XGTACX_site1239] | 11.2 ± 0.62
GTGTGGTTACAGACACGAACACATTTTTTAAATATT [CACACA_negctrl_site83] | 10.6 ± 0.37
TATATATATTATATAGTGCATTGAAGAAGGGGATTT | 9.85 ± 0.24
TTTATATGTTTAAAATGTACATGTGGTAAAAATTTT [XGTACX_site5907] | 11.2 ± 0.61
GGGAGGATATTACACAGTACCCAGAAAATCTACGGA [XGTACX_site2551] | 11 ± 0.68
CATATTTGTTGACACACACACATATTTATATAAATA [CACACA_site7648] | 10.5 ± 0.33
ATATATAAACTGAAGGGTACAATGAAAAAAGAACTT [XGTACX_site7219] | 11.2 ± 0.88
TAGGATTTTTAGTTTATTGTAACTATTATTTTATTT [CACACA_negctrl_site829] | 9.87 ± 0.099
CCCATTATTGTTGGGGGTACAATTTTGAATATATAT [XGTACX_site2227] | 11.5 ± 0.84
TATTCCTTATTATAATTCTTAAATAAAAAAAAAAAA [TGCATGCA_negctrl_site45] | 9.79 ± 0.41
AAATATATGAATAAATGTACGAAATGAATGGATGAA [XGTACX_site7108] | 10.7 ± 0.21
AAACATGTATTTTATTGTACACATTCATAAATCACA [XGTACX_site1420] | 11.5 ± 0.93
TTATAATCTTATATATGTACATATATATATTATTAT [XGTACX_site7780] | 11.2 ± 0.86
TTAATTAGAAATCATACACACATATATATATATATA [CACACA_site173] | 10.2 ± 0.58

Sequence | gcPBM binding intensity (ln)
AAAAAAAAAAAAAAACTTACGATTTTAAAAAGATGG [GTGCAC_negctrl_site291] | 9.66 ± 0.57
GAAATGTACAAATACGTACACACATATATATATATA [CACACA_site1541] | 11.6 ± 0.99
GCAAAATATTTAAAATAATATATGTGTATATTTTTA [GTGCAC_negctrl_site149] | 9.705 ± 0.035
TTTATATTGTTTTATTGTACATATATATTTATACAT [XGTACX_site6821] | 11.1 ± 0.64
CATTCAAACAAAAAAAGTACTCATCACATAATATAT [XGTACX_site1251] | 11.4 ± 0.95
AGACCTTTAATTTGTGTGCACATAATTAGTGTACAT [GTGCAC_site9434] | 11.5 ± 0.96
ATTAAAAAAAAAAAAAGTACTTATAATTATACTCGT [XGTACX_site4852] | 11.3 ± 0.8
GGAAGATGAAAAATAAAGCATGTGCTGTACAAACGA [CACACA_negctrl_site1625] | 10.8 ± 0.37
AAATATTTATATGTTACACACTGTTGATAATTTTCT [CACACA_site1347] | 9.97 ± 0.057
TTATATTATATATATGTGCACATTTTTAAACTTGGA | 10.4 ± 0.28
ACAAATAAAAATATTACACACACTATTATATTGATA [CACACA_site1494] | 9.88 ± 0.085
ACTTATTTCGATATGTGTACTTAATATATATATTTA [XGTACX_site6616] | 11.4 ± 0.83
ATTTTTGTAATTATTTGTACACATTTATTTATGTGT [XGTACX_site1864] | 11.5 ± 0.73
TAAAAATATAAATTTTGTACGTAAAAAATGGTTCTT [XGTACX_site1506] | 11.5 ± 0.93
AAATAAAATAAAAACATGCACACTTTATTTTTTTTA [CACACA_site2800] | 9.91 ± 0.11
AGAAGTTTAAAAAGCACACAAAAAAAAAAAAAAAGA [CACACA_site3309] | 10.1 ± 0.18
AAAATCGTGTTCTGAATACACACTAATACAAAGTTG [CACACA_site3985] | 10.6 ± 0.37
AAAAATACCTGAATATGTACATATGATCAATGGGCC [XGTACX_site887] | 10.9 ± 0.52
ATTCATATATATTATACACACACATATATAAATATA [CACACA_site8228] | 9.995 ± 0.049
TGACCGTTTTAAGAGTGTACAAAAAAAAAAAAAAAA [XGTACX_site4141] | 11 ± 0.83
TATTCTATATAATAATGTACGTGATTTAAATTTTCA [XGTACX_site6650] | 11.2 ± 0.79
TAACATATTAATAACATATTTATAATATATTAATAA [TGCATGCA_negctrl_site243] | 9.51 ± 0.18
